Results reported in publication PMC6919601, “Identification of Plasmodium dipeptidyl aminopeptidase allosteric inhibitors by high throughput screening” (PLoS ONE, 2019).
Where “and” joins values, the source holds several entries; their conditions need not be identical. Equal entries are not always repeated. Screen size: about 110,000 compounds; about 230 (0.21%) showed an effect of 50% or more. Some of the results follow.

What follows are molecules tested against DPAP1 (Plasmodium falciparum, UniProt Q8IIJ9) (assay: primary screen, percent inhibition; read by cleavage of a fluorogenic dipeptide substrate; higher = more effect of the substance).
Sequence of DPAP1 (Q8IIJ9 whole entry, looked up): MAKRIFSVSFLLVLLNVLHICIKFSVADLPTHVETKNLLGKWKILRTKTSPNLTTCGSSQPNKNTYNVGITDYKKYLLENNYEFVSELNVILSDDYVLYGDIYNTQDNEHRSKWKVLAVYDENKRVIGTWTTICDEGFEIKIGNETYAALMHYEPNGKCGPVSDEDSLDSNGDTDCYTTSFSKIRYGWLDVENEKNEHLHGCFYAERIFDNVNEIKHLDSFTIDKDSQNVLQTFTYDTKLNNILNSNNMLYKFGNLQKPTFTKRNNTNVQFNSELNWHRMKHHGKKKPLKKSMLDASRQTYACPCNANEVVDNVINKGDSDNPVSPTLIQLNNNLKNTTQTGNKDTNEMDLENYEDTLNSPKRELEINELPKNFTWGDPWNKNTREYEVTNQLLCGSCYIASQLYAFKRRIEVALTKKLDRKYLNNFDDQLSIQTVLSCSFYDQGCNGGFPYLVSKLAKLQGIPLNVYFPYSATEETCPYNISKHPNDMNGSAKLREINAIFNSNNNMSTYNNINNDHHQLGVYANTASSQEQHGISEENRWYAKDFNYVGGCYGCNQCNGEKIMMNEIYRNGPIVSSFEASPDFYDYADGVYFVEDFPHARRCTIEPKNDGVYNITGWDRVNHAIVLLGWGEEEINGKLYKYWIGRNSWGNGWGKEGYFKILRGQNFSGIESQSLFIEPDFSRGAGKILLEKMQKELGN
Design: species or system P. falciparum D10 trophozoite lysates; single well
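Further: 30 min substrate incubation versus DMSO and 10 µM JCP410 controls.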

Row | SMILES | % Inhibition @ 10 uM
1 | Cc1cc2nc(O)c(O)nc2cc1S(=O)(=O)NCc1ccc2c(c1)OCO2 | 0.275%
2 | Cc1ccc(C(=O)Nc2ncccc2Cl)o1 | 3.76%
3 | O=[N+]([O-])c1ccccc1S(=O)(=O)N1CCN(c2ccccc2)CC1 | 2.46%
4 | COc1ccc(Nc2ncccc2C(=O)NCCC(C)C)cc1 | -6.44%
5 | COCCNC(=O)CCc1c(C)nc2c(c(C)nn2C)c1C | -2.45%
6 | O=C(c1ccc([N+](=O)[O-])cc1)N1CCc2ccccc21 | 1.7%
7 | CCCN1CCC(N(C)C2CCN(C)CC2)CC1 | -5.44%
8 | COc1ccc(OC)c(CNc2ncc(-c3cccc(Cl)c3)n2C)c1 | 0.627%
9 | CCOC(=O)CSc1nc(N)c(C#N)c(CC)c1C#N | 20.6%
10 | CN(C)c1ccc(CN2CCN(Cc3ccc4c(c3)OCO4)CC2)cc1 | 0.605%
11 | Cc1ccc(-c2cc(C(=O)Nc3cccc(F)c3)c3ccccc3n2)o1 | 13.3%
12 | Cc1nc2nc(NC(=O)C3CCCO3)nn2c(O)c1Cc1ccccc1 (stereo not shown) | -1.31%
13 | Cc1ccccc1Cn1c(C(=O)O)c(CNCc2cccnc2)c2ccccc21 | -1.44%
14 | Cc1nnc(NCc2cccnc2)c2c1nnn2Cc1ccc(F)cc1 | -3.49%
15 | c1ccc(-c2ccc(-c3cn4ccsc4n3)cc2)cc1 | -0.415%
16 | S=C(NC12CC3CC(CC(C3)C1)C2)N1CCCCC1 | 2.94%
17 | Cc1ccc(CCNC(=O)c2cc3c(C)nccc3nc2O)cc1 | -2.72%
18 | CCOc1ccccc1C(=O)Nc1cccc(C)n1 | -3.74%
19 | Cn1c(=O)c2c(-c3ccc(C(C)(C)C)cc3)n(-c3ccccn3)cc2n(C)c1=O | 5.17%
20 | CCC(=O)Nc1cccc(-c2nc3ccccc3[nH]2)c1C | -7.22%
21 | O=C(CSc1nc2ccccc2s1)Nc1ncc2c(n1)CC(c1ccco1)CC2=O (stereo not shown) | -1.47%
22 | COc1ccc(-c2ccc(C#N)c(SCC(=O)NCc3ccccc3)n2)cc1 | -0.68%
23 | COc1cc(OC)cc(C2=N/C(=C\c3cccs3)C(=O)O2)c1 | -6.18%
24 | Cc1ccc(C(=O)Nc2ccc(Oc3ccc(NC(=O)c4ccc(C)o4)cc3)cc2)o1 | 7.12% and -0.884%
25 | COC(=O)c1cc(S(=O)(=O)N2CCc3ccccc3C2)cn1C | -2.84%
26 | CCn1cc(/C=C(\NC(=O)c2ccccc2OC)C(=O)NC(C)C)c2ccccc21 | 3.24%

Row | SMILES | % Inhibition @ 10 uM
27 | COc1ccc(C2C(C#N)=C(N)OC3=C2C(=O)CC(C)(C)C3)cc1 (stereo not shown) | -7.96%
28 | COc1cccc(CNC(=O)CN2C(=O)CSc3nc(C)cc(C)c32)c1OC | -0.637%
29 | CCCO/C(O)=C1\C(C)=NC2=C(C(=O)CCC2)C1c1ccccc1Br (stereo not shown) | -3.09%
30 | COCc1cc(C)nc2sc(C(=O)Nc3cc(Br)cc4cccnc34)c(N)c12 | -6.08%
31 | Cn1c(=O)c2c(ncn2CC(=O)NCC2CCCO2)n(C)c1=O (stereo not shown) | 1.58%
32 | CCOC(=O)c1c(N2C(=O)C3CC=C(Cl)CC3C2=O)sc2c1CCCC2 (stereo not shown) | -1.32%
33 | COCCCNC(=O)c1cc2c(C)nc3ccccc3c2o1 | 4.74%
34 | CN1CCC(N(C)C(=O)c2ccccc2F)CC1 | 3.92%
35 | CCCS(=O)(=O)c1nc(S(=O)(=O)c2ccc(C)cc2)c(NCC)s1 | -2.25%
36 | CCC(C)NC(=O)C1CCN(C(=O)c2ccccc2)CC1 (stereo not shown) | -3.67%
37 | CC1(C)CC2c3cccc(C(=O)O)c3C(=O)N2Cc2c(Cl)cccc21 (stereo not shown) | 4.57%
38 | Cc1cc(C)c(S(=O)(=O)Nc2cccc(C)c2C)c(C)c1 | 1.35%
39 | O=C(NCc1ccc2c(c1)OCO2)c1ccc(-n2cnc3cccnc32)cc1 | -4.21%
40 | O=C(CSc1nnc(CNC(=O)c2cccs2)o1)NCc1ccccc1 | -7.21%
41 | COCc1nc2ccccc2n1C(C)C | 1.12%
42 | COc1cc(/C=C/C(=O)/C=C/c2cc(OC)c(OC)c(OC)c2)cc(OC)c1OC | -5.62%
43 | CC1CCN(S(=O)(=O)c2ccc(NS(C)(=O)=O)cc2)CC1 | -1.22%
44 | Cc1cc(SCC(=O)NCc2ccco2)nc2ccccc12 | -0.0626%
45 | N#C/C(=C\c1cccs1)c1nc(-c2ccc(Cl)c(Cl)c2)cs1 | 1.44%
46 | Cc1nc(NCCCO)c2c3c(sc2n1)CCCC3 | 3.06%
47 | CC1CCc2sc(N3C(=O)C4C5C=CC(C5)C4C3=O)c(C#N)c2C1 (stereo not shown) | 0.851%
48 | Cc1ccc(NC(=O)c2cnccn2)cc1C | -5.16%
49 | Cc1nc2nc(N3C(=O)c4ccc(C(=O)O)cc4C3=O)nn2c(O)c1Cc1ccccc1 | -1.31%
50 | Cc1sc(NC(=O)CCC(=O)O)c(C(N)=O)c1-c1ccccc1 | -10.6%
51 | Cc1ccccc1CNC(=O)C1CCCN(S(=O)(=O)N2CCOCC2)C1 (stereo not shown) | 0.616%
52 | CCCc1ccc(Oc2coc3cc(OC)ccc3c2=O)cc1 | 1.65%

Row | SMILES | % Inhibition @ 10 uM
53 | CCOC(=O)C1CCCN(Cc2ccc(F)cc2)C1 (stereo not shown) | -0.192%
54 | C=CCN1C(=O)c2cccc3c(N4CCOCC4)ccc(c23)C1=O | -4.01%
55 | COc1ccc(NC(=O)CS(=O)(=O)Cc2ccccc2)cc1 | -1.28%
56 | CCOc1ccccc1/C=C1/N=C(c2ccccc2C)OC1=O | -2.6%
57 | CCn1c(C(=O)NCc2ccccn2)cc2sccc21 | -10.5%
58 | Nc1ncnc2c1ncn2CCNCc1ccccc1 | -3.33%
59 | CC1CCN(C2=C(NC3CCCC3)C(=O)c3ccccc3C2=O)CC1 | 3.35%
60 | O=C(NC1CCSC1=O)c1ccc(C(=O)NC2CCSC2=O)cc1 (stereo not shown) | 3.33%
61 | O=C(c1ccc(C2SCC(=O)N2CCc2ccccc2)cc1)N1CCOCC1 (stereo not shown) | 1.84%
62 | COc1ccc(Br)cc1/C=C1\N=C(c2cncc(Br)c2)OC1=O | -5.99%
63 | CCOC(=O)N1CCC(N2CCC(C(N)=O)CC2)CC1 | -1.5%
64 | OCCn1c(SC2CCCCC2)nc2ccccc21 | -18.6%
65 | COc1ccc(-n2nnnc2C2CCN(S(=O)(=O)c3ccc(Cl)s3)CC2)cc1 | 1.67%
66 | CCOc1ccccc1C(=O)Nc1ccc(S(N)(=O)=O)cc1 | -4.59%
67 | N#CC1=C(N)NC(SCC(=O)c2ccc(Cl)cc2)=C(C#N)C12CCCC2 | 11.1%
68 | Cc1ccccc1/N=C/c1c(C)nn(-c2ccc(F)cc2)c1O | -2.16%
69 | N=C(NOC(=O)CCc1ccccc1)c1ccccc1Cl | 0.343%
70 | COc1ccc(OC)c(CN2CCN(Cc3cccc(F)c3)CC2)c1 | -9.94%
71 | O=C(CSc1nnc(-c2ccccc2)n1Cc1ccccc1)NCCc1ccccc1 | -10%
72 | Cc1ccc(CCN2CC(C(=O)NCCCN(C)Cc3ccccc3)CC2=O)cc1 (stereo not shown) | -5.43%
73 | CN1N=C2C3CCN(CC3)C2C1c1ccc2c(c1)OCO2 (stereo not shown) | 0.51%
74 | COCCNC(=O)c1c(C)c(-c2cccc(Cl)c2)nc2ccccc12 | 6.79%
75 | CC(NC(=O)Cn1ncc2c3ccccc3n(C)c2c1=O)c1ccc2c(c1)OCCO2 (stereo not shown) | 4.95%
76 | CCOc1c(/C=C2/S/C(=N\c3ccccc3)N(C)C2=O)cccc1OC | 1.57%
77 | Cc1cc(C2(c3ccc(O)c(C)c3)C(=O)N(Cc3ccccc3)c3ccccc32)ccc1O | -6.68%
78 | CCc1c(C)nc(SCC(=O)N2CCc3cc(OC)c(OC)cc3C2)c(C#N)c1C | 19.6%

Row | SMILES | % Inhibition @ 10 uM
79 | O=P(O)(CN1CCCCC1)C1CCCCC1O (stereo not shown) | -3.38%
80 | CC1(C)CC(=O)C2=C(C1)c1c(ccc3ccccc13)NC2c1ccc(O)c(O)c1 (stereo not shown) | 2.55%
81 | Clc1ccc(CNC2CN3CCC2CC3)cc1 (stereo not shown) | 1.72%
82 | O=C(c1cnn2c(C(F)F)cc(-c3ccccc3)nc12)N1CCN(c2ccccn2)CC1 | 5.65%
83 | O=C(NCCc1ccccc1)NCc1cccn1Cc1ccccc1 | -6.97%
84 | CCNC(=O)CN(c1ccc(C23C[C@H]4C[C@@H](C2)C[C@@H](C3)C4)cc1)S(C)(=O)=O | 1.19%
85 | Cc1ccc(S(=O)(=O)N(C)c2ccccc2C(=O)N2CCCC2)cc1 | 7.62%
86 | Cc1ccc(OCC(=O)NCC2CCCO2)c(C)c1 (stereo not shown) | 3.46%
87 | CCOc1cc(S(=O)(=O)N2CCOCC2)c(C)cc1C | 0.245%
88 | Cc1nn(Cc2nnc(S)n2Cc2ccccc2)c(C)c1Cl | -1.1%
89 | CCC1C(c2ccccc2)=NNc2nc3c(c(=O)n(C)c(=O)n3C)n21 (stereo not shown) | -2.5%
90 | CCCSc1nc(=O)c2c(n1C)NC(=O)CC2c1cc(F)ccc1F (stereo not shown) | 0.596%
91 | CCS(=O)(=O)N1CCC(C(=O)NCCCN2CCN(Cc3ccccc3)CC2)CC1 | -1.21%
92 | COc1ccc2oc3cc(N(C)C)cc(-c4ccc(Cl)cc4)c3c2c1 | 1.13%
93 | CN(CCc1ccccn1)Cc1ccc(Cl)cc1 | 1.83%
94 | O=C(NCCCCc1ccccc1)c1ccccc1Cl | -3.03%
95 | CC1C(=O)CC(c2ccccc2)NC1c1ccccc1 (stereo not shown) | 4.8%
96 | Cc1ccc(C2=CC(c3cccc(Br)c3)n3nnnc3N2)cc1C (stereo not shown) | 3.26%
97 | Cc1coc2cc3oc(=O)c(-c4ccccc4)cc3cc12 | -2.57%
98 | CCN(CC)c1ccc(NC(=O)C2CC2)cc1 | 9.11%
99 | Cc1ccnc(NS(=O)(=O)c2ccc(NC(=O)COc3ccc(Cl)cc3)cc2)n1 | -0.132%
100 | CC1=CC(C)(C)NC(=S)N1c1cccc(O)c1 | 3%
101 | COc1ccc(CNC2CN3CCC2CC3)cc1OC (stereo not shown) | 5.03%
102 | COc1ccc(-n2nnc(-c3nc(-c4ccncc4)no3)c2N)cc1 | 2.19%
103 | Cc1ccc(CNS(=O)(=O)c2ccc(CN3C(=O)c4cccnc4C3=O)cc2)o1 | -4.45%
